Measurements taken from article PMC4336329 (PLoS ONE, 2015).
About 2,200 (0.71%) of roughly 310,000 compounds showed an effect of 50% or more. The effect is printed as a negative number. Some of the results follow.

Each molecule was assayed against human ether-à-go-go-related gene (hERG) potassium channel (human, UniProt Q12809) (assay: primary screen, population patch clamp on CHO cells stably expressing hERG).
human ether-à-go-go-related gene (hERG) potassium channel, sequence (Q12809 whole entry, looked up): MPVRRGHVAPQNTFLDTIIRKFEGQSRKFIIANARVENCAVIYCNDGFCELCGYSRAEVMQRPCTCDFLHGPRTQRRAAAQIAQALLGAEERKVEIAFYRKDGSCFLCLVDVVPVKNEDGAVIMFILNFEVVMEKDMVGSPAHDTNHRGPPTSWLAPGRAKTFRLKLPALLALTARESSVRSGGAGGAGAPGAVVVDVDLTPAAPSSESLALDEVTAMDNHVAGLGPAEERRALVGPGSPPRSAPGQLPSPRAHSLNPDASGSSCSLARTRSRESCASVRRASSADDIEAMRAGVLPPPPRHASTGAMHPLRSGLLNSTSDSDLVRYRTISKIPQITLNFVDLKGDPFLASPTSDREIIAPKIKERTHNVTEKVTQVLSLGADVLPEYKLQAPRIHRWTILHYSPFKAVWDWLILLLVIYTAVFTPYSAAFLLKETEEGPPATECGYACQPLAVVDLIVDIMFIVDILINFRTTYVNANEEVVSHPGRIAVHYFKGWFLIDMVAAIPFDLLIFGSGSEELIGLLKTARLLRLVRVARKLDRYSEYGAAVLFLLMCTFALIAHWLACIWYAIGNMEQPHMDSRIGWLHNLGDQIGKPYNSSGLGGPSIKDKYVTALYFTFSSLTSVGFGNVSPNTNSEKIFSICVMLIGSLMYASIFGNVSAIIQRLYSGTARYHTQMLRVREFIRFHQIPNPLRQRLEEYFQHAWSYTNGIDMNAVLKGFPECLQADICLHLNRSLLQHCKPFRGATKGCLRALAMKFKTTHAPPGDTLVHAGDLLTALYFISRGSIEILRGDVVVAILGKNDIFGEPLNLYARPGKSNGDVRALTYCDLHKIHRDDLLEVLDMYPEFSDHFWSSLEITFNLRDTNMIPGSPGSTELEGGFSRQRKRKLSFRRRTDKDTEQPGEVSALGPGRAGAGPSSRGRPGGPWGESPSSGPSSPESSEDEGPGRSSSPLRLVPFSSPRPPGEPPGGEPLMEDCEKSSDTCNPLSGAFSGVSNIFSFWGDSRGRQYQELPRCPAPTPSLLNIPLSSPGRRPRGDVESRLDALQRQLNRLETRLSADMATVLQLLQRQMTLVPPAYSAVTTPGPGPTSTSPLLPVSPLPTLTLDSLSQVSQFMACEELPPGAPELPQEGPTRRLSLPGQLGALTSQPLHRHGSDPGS

Going from `CCc1nc2ccccc2n1CC(O)COCC1CC=CCC1` (stereo not shown) to `CC(C)(C)N1CC(c2nc3ccccc3n2Cc2ccc(Cl)cc2)CC1=O` (stereo not shown), the “hERG current change (%, negative = inhibition) at 1uM” value falls from 1.5% to -3.24%.

Compared with `O=C(NCc1cccnc1)/C(=C/c1ccc(-c2cccc(C(F)(F)F)c2)o1)NC(=O)c1ccccc1`, `Cc1c(C(=O)NC(=S)N(Cc2ccccc2)c2ccccn2)cccc1[N+](=O)[O-]` is higher in “hERG current change (%, negative = inhibition) at 1uM” value: -18.4% for the first, 10.8% for the second.

Compared with `O=C(CC(=O)N1CCN(c2ccccn2)CC1)Nc1ccc2nc3n(c(=O)c2c1)CCCCC3`, `O=C(COc1ccccc1)Nc1ccc(N2CCN(C(=O)c3ccco3)CC2)cc1` is lower in “hERG current change (%, negative = inhibition) at 1uM” value: 2.67% for the first, -7.24% for the second.

First: CCCCNC(=S)N(CCN(C)C)Cc1cc2cc3c(cc2[nH]c1=O)OCCO3
Second: CCN(CC)CCN(Cc1cc2cc3c(cc2[nH]c1=O)OCCO3)C(=S)NCCCN(C)C
The “hERG current change (%, negative = inhibition) at 1uM” value of the first is lower: 10.8% for the first, 14.5% for the second.

First: NNC(=O)CNC(=O)c1cccc(Br)c1
Second: CC(C)C(NC(=O)OCc1ccccc1)C(=O)O (stereo not shown)
The “hERG current change (%, negative = inhibition) at 1uM” value of the first is lower: -12.4% for the first, 7.14% for the second.

Compared with `Cc1coc2cc3oc(=O)ccc3cc12`, `CCOC(=O)c1cc2occc2n1Cc1c(F)cccc1Cl` is lower in “hERG current change (%, negative = inhibition) at 1uM” value: 7.21% for the first, -1.33% for the second.

First: COc1ccc(-c2cnc(N)nc2-c2ccc(OC)cc2)cc1
Second: COc1ccc(C(=O)c2c(O)cc(-c3ccc(OC)cc3)oc2=O)cc1
The “hERG current change (%, negative = inhibition) at 1uM” value of the first is higher: 17.5% for the first, 12.3% for the second.

First: CCn1c2ccccc2c2nnc(NN)nc21
Second: CCCn1c(=O)c2ccccc2n2c(SCC(=O)NCc3cccs3)nnc12
The “hERG current change (%, negative = inhibition) at 1uM” value of the first is higher: 8.14% for the first, 6.65% for the second.

Compared with `COc1cc(OC)cc(-c2nnc(SCc3cccnc3)o2)c1`, `COc1ccc(OCc2nn3c(-c4cccc(OC)c4)nnc3s2)cc1` is higher in “hERG current change (%, negative = inhibition) at 1uM” value: -1.32% for the first, 3.7% for the second.

Going from `Cc1nn(Cc2ccc(Cl)cc2)c(C)c1NC(=O)c1cc(-c2ccc3c(c2)OCO3)on1` to `O=c1cc(NCc2ccc3c(c2)OCO3)[nH]c(=O)n1-c1ccc(Cl)cc1`, the “hERG current change (%, negative = inhibition) at 1uM” value falls from 3.51% to -3.67%.

First: CN(CC(=O)O)c1ccc(S(=O)(=O)N2CCOCC2)cc1[N+](=O)[O-]
Second: Cc1ccc(S(=O)(=O)N(C)CCCC(=O)N2CCN(C=O)CC2)cc1
The “hERG current change (%, negative = inhibition) at 1uM” value of the first is higher: 12.4% for the first, 2.93% for the second.

First: CCC(C)(C)C1CCc2[nH]nc(C(=O)NCc3ccccn3)c2C1 (stereo not shown)
Second: CC(C)(C)c1nnc(NC(=O)c2cccnc2Cl)s1
The “hERG current change (%, negative = inhibition) at 1uM” value of the first is higher: 12.6% for the first, 9.9% for the second.

Going from `COc1ccc(C(=O)NC2CC2)cc1OC1CCN(Cc2cc(C)cc(C)c2)CC1` to `O=C(NC1CCCC1)c1ccc(CNc2c(N3CCOCC3)c(=O)c2=O)cc1`, the “hERG current change (%, negative = inhibition) at 1uM” value rises from -57.7% to 12%.

Compared with `CC(=O)OC(C(=O)NC1CCCCC1)c1ccc(Cl)c(Cl)c1` (stereo not shown), `CC(=O)Nc1ccc(/C=C(\C#N)C(=O)NC2CCCCC2)cc1` is lower in “hERG current change (%, negative = inhibition) at 1uM” value: 16.1% for the first, 15.8% for the second.

Going from `CC1CCN(C(=O)CN2C(=O)NC3(CCCCCC3)C2=O)CC1` to `Cc1cc(C)c(C(=O)CN2C(=O)NC3(CCCCCC3)C2=O)cc1C`, the “hERG current change (%, negative = inhibition) at 1uM” value rises from 9.83% to 18.5%.

Compared with `C#CCOCCOCCOCCNc1nc(N2CCN(C(=O)CCCCCCCCCCNC(=O)[C@@H](CCSC)n3cc(CCO)nn3)CC2)nc(N2CCN(C(=O)CCCCCCCCCCNC(=O)[C@H](CCCN=C(N)N)n3cc(C[C@@H](C)CC)nn3)CC2)n1`, `CCCCOc1ccc(C(=O)N2CCN(c3ccc(N4CCOCC4)nn3)CC2)cc1` is lower in “hERG current change (%, negative = inhibition) at 1uM” value: 16.1% for the first, -6.28% for the second.

Compared with `Cc1ccc(S(=O)(=O)Cc2nnnn2-c2ccccc2)cc1`, `Cc1nnc(-c2cccc(Br)c2)c2cn(-c3ccccc3)nc12` is lower in “hERG current change (%, negative = inhibition) at 1uM” value: 11.5% for the first, -15.7% for the second.

Compared with `Nc1cc(S(=O)(=O)N2CCCCC2)ccc1Oc1ccc(Cl)cc1`, `CN(C)S(=O)(=O)c1ccc(C(=O)Nc2cc(S(=O)(=O)Nc3ccccc3Cl)ccc2N2CCCCC2)cc1` is higher in “hERG current change (%, negative = inhibition) at 1uM” value: 11.1% for the first, 12.7% for the second.

Going from `Cc1ccc(NC(=O)C2CCN(c3nc(C)cc(C)n3)CC2)cc1` to `Cc1cc(C)c(NC(=O)C2CC3CCC2C3)c(C)c1` (stereo not shown), the “hERG current change (%, negative = inhibition) at 1uM” value rises from 18.7% to 23.3%.

Going from `Cc1ccccc1NC(=O)COc1coc(CN2CCN(c3ccccc3)CC2)cc1=O` to `COc1ccc(-c2cc(C(=O)Nc3ccccc3)on2)cc1`, the “hERG current change (%, negative = inhibition) at 1uM” value rises from -1.02% to 15.6%.

Compared with `CCOc1ccc(NC(=O)c2ccccc2NS(C)(=O)=O)cc1`, `CCOc1ccc(N=Cc2ccc3ccccc3c2)cc1` is higher in “hERG current change (%, negative = inhibition) at 1uM” value: -16.5% for the first, 5.91% for the second.

Compared with `CCn1c(=O)c2cc(C(=O)N(C)c3ccc(OC)cc3OC)sc2c2ccccc21`, `COc1ccc(C(=O)Nc2cc(OCc3ccccc3)c(Cl)cc2Cl)cc1` is higher in “hERG current change (%, negative = inhibition) at 1uM” value: 10.6% for the first, 15.2% for the second.

Compared with `CN(C)c1nc(OCCNC(=O)Nc2ccc(Cl)cc2)nc(N(C)C)n1`, `COCC(=O)Nc1ccc(C(C)C)cc1` is lower in “hERG current change (%, negative = inhibition) at 1uM” value: 10.9% for the first, 1.61% for the second.

Compared with `CN(C)/C=N/c1nc2nccc(-c3cccc(Cl)c3)n2n1`, `CN(C)/C=C(/C(=O)c1ccc(Cl)cc1)n1cncn1` is lower in “hERG current change (%, negative = inhibition) at 1uM” value: 12% for the first, 6.85% for the second.

First: C#CCn1c(=NC(=O)c2cccs2)sc2cccc(OCC)c21
Second: COc1ccccc1N1CCN(S(=O)(=O)c2cccs2)CC1
The “hERG current change (%, negative = inhibition) at 1uM” value of the first is higher: 15.8% for the first, -3.76% for the second.

Going from `CN(CC(=O)Nc1ccc(F)c(F)c1F)C(=O)CN1C(=O)C2CCCCC2C1=O` (stereo not shown) to `C/C(=N\OCC(=O)Nc1ccc(F)c(F)c1F)c1cc2ccccc2o1`, the “hERG current change (%, negative = inhibition) at 1uM” value rises from -5.9% to 10.6%.

First: c1cc(-c2n[nH]c(-c3ccncc3)n2)ccn1
Second: CCc1ccc(C2=Nn3c(nnc3-c3cccs3)SC2)cc1
The “hERG current change (%, negative = inhibition) at 1uM” value of the first is higher: 12.9% for the first, -7.75% for the second.

Compared with `O=C(/C=C/c1ccccc1)Nc1cccnc1`, `COc1ccc(Nc2nc(C(=O)N(CCO)Cc3ccccc3)cs2)cc1` is higher in “hERG current change (%, negative = inhibition) at 1uM” value: 0.0301% for the first, 5.07% for the second.

Going from `COc1cc(C(=O)NCCCNC(=O)c2cc(OC)c(OC)c(OC)c2)cc(OC)c1OC` to `CCOc1ccc(C2OC(=O)Cc3cc(OC)c(OC)cc32)cc1` (stereo not shown), the “hERG current change (%, negative = inhibition) at 1uM” value falls from 6.83% to 3.1%.

Compared with `CCOC(=O)C1(Cc2cccc(F)c2)CCN(C(=O)c2cnccn2)CC1`, `CC1CCN(C(=O)COC(=O)c2ccccc2NC(=O)c2ccco2)CC1` is lower in “hERG current change (%, negative = inhibition) at 1uM” value: 12.8% for the first, -8.23% for the second.

First: Cc1onc(-c2c(Cl)cccc2Cl)c1C(=O)NNC(=O)c1c(-c2c(Cl)cccc2Cl)noc1C
Second: COC(=O)c1scc(C)c1NS(=O)(=O)c1ccc(NC(C)=O)cc1
The “hERG current change (%, negative = inhibition) at 1uM” value of the first is higher: 15.9% for the first, 2.88% for the second.

Going from `S=C(NC1CCCC1)N1CCN(c2ccc(Cl)cc2)CC1` to `CCOC(=O)C1CCN(C(=O)CN2C(=O)COc3ccc(C(C)(C)C)cc32)CC1`, the “hERG current change (%, negative = inhibition) at 1uM” value rises from 3.48% to 11%.

Compared with `Cc1nn2c3ccccc3n(CCN3CCCCC3)c2nc1=O`, `Cc1sc2nc(CC(N)=O)[nH]c(=O)c2c1-c1ccccc1` is higher in “hERG current change (%, negative = inhibition) at 1uM” value: 7.27% for the first, 14.3% for the second.

Going from `CC(=O)Nc1c(S(=O)(=O)c2ccccc2)c2nc3ccccc3nc2n1Cc1ccccc1` to `COc1cc2c3nnc(-c4ccccc4)c-3cn(Cc3ccccc3F)c2cc1OC`, the “hERG current change (%, negative = inhibition) at 1uM” value rises from 6.92% to 11%.

Going from `COc1ccc(OCC(=O)OCC(=O)N2CC(=O)Nc3ccccc32)cc1` to `O=C(COC(=O)c1ccc(S(=O)(=O)Nc2ccccc2)cc1)NCCN1C(=O)CSC1=O`, the “hERG current change (%, negative = inhibition) at 1uM” value rises from 1.24% to 4.61%.

First: O=C(CSc1nc2ccsc2c(=O)n1NC(=O)c1ccccc1)NCc1ccco1
Second: O=C(CN(CC1CCCO1)C(=O)CNS(=O)(=O)c1ccccc1)NCc1ccc(F)cc1 (stereo not shown)
The “hERG current change (%, negative = inhibition) at 1uM” value of the first is lower: -3.26% for the first, 14.8% for the second.

First: Cn1cc(C[C@H](NC(=O)OC(C)(C)C)C(=O)N[C@@H](CO)Cc2ccccc2)c2ccccc21
Second: O=C1CC(Cc2ccccc2)C(=O)N1CCc1ccc2c(c1)OCO2 (stereo not shown)
The “hERG current change (%, negative = inhibition) at 1uM” value of the first is lower: 2.24% for the first, 3.24% for the second.

Compared with `CC(C)CN(C)C(=O)CC1C(=O)NCCN1C` (stereo not shown), `CCOC(=O)C[C@H]1c2ccccc2S(=O)(=O)N1C1CC1` is lower in “hERG current change (%, negative = inhibition) at 1uM” value: 15.2% for the first, 6.5% for the second.

Going from `O=c1c(-c2ccc3c(c2)OCCO3)coc2c(CN3CCOCC3)c(O)ccc12` to `CCOC(=O)c1sc2nc(N3CCOCC3)c3c(c2c1N)CCCC3`, the “hERG current change (%, negative = inhibition) at 1uM” value rises from -4.97% to 10.6%.

First: CCOC(=O)c1c(C)n(C)c2ccc(OC(C)C(=O)OC)cc12 (stereo not shown)
Second: COc1ccc(Cl)cc1S(=O)(=O)NC(C)C(=O)NCCCn1ccnc1 (stereo not shown)
The “hERG current change (%, negative = inhibition) at 1uM” value of the first is lower: -0.594% for the first, 8.42% for the second.

Compared with `CCOc1cc(NC(=S)NCc2ccco2)c(OCC)cc1NC(=O)CC`, `Cc1cc(C(=O)N/N=C/c2cccs2)no1` is higher in “hERG current change (%, negative = inhibition) at 1uM” value: 2.13% for the first, 2.98% for the second.

Going from `Nc1ncnc2c1ncn2C1CCC(CO)C(O)C1` (stereo not shown) to `C[C@]1(CO)CCC[C@@]2(C)C1CC[C@@H](CO)[C@@H]2CCc1ccoc1` (stereo partly shown), the “hERG current change (%, negative = inhibition) at 1uM” value rises from 8.22% to 11%.

First: CCCCN(C(=O)c1c(CC)noc1C)c1c(N)n(CCCC)c(=O)[nH]c1=O
Second: CCCCCNS(=O)(=O)c1cc2c3c(c1)CCC(=O)N3CCC2
The “hERG current change (%, negative = inhibition) at 1uM” value of the first is lower: 5.96% for the first, 12.8% for the second.

First: CC(C)C(=O)NC(Nc1cccc([N+](=O)[O-])c1)C(Cl)(Cl)Cl (stereo not shown)
Second: O=C1NCC(O)=C1C=NC12CC3CC(CC(C3)C1)C2 [14736166]
The “hERG current change (%, negative = inhibition) at 1uM” value of the first is higher: 8.76% for the first, 6.01% for the second.
